This is one part of the list. Cleavage of a single-stranded DNA pool by Rep nickase domains was read by sequencing (1 h at 37 °C, 3 µM enzyme); the outer parts of the 90-letter strands are left off. A value is the log2 ratio of uncut reads to the pool without enzyme; the lower, the more was cut; hits are not called. Because reads are shares of a total, they shift together; values above 0 arise when much of the pool is cut.
The sequences below were run on T1, Rep nickase domain of tomato golden mosaic virus (assay: uncleaved DNA left, log2 of reads against the no-enzyme library (log2 ratio); higher = less cleavage (more negative = more Rep cleavage of the k-mer); sequences stand for … in CTCGTCCG…ACCGGAGA).
T1 sequence (residues 1-124, tag not shown): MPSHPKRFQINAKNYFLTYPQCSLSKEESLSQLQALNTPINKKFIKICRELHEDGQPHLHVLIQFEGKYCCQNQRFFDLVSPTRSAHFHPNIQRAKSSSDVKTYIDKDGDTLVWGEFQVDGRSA
Procedure: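 A pool of 90-nt single-stranded DNAs with seven random bases just before the constant AC of the nick site (name = the seven bases) was cut by 3 µM recombinant His6-SUMO-tagged Rep nickase domain (300 nM DNA, 50 mM HEPES pH 8.0, 50 mM NaCl, 1 mM MnCl2, 1 h, 37 °C, three replicates). Uncut DNA was amplified and sequenced.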

Row | Sequence | uncleaved DNA left (log2)
1 | CCTATAG | 0.107
2 | GGACAAT | -0.0759
3 | TGTGCCT | -0.239
4 | TGTTATA | 0.122
5 | TCGTCCC | -0.0684
6 | GGAGGAG | 0.0891
7 | ATATCTT | -0.372
8 | TCTTGCG | -0.0679
9 | CGCTGTC | -0.105
10 | TCGCGGT | 0.0118
11 | CGAAGGG | -0.0487
12 | GGAGCAA | 0.0392
13 | AGACTGA | -0.00294
14 | TGGATAA | -0.0765
15 | GACCAGC | 0.0504
16 | CAGCGAT | 0.177
17 | ATTGCGG | -0.0436
18 | CTTTAAT | -0.0258
19 | CTATAAC | -0.161
20 | CCTATAA | 0.0912

Row | Sequence | uncleaved DNA left (log2)
21 | GCTGTTG | 0.0788
22 | CGTGCTT | -0.0777
23 | TTCGTGC | -0.192
24 | CCCTCAC | 0.189
25 | AATATCA | 0.0535
26 | GCATCTT | 0.229
27 | GTGCTAA | 0.175
28 | AATGGAG | -0.0542
29 | CGTTGGT | 0.0509
30 | TACTTAA | -0.0334
31 | TTCACGG | 0.0695
32 | AATGCGG | 0.124
33 | CTCGGTT | -0.0323
34 | GTACTCG | -0.0235
35 | GACCGGC | -0.123
36 | GTCTCGC | 0.203
37 | CCAGGGG | 0.107
38 | ACTGGAT | 0.0591
39 | AGTCCTA | 0.0514
40 | AAACGCT | -0.0556
